# The campaign covered roughly 310,000 compounds. About 2,200 (0.71%) showed an effect of 50% or more. Effects have a minus sign here. This is one part of the list.
# Target: human ether-à-go-go-related gene (hERG) potassium channel (human, UniProt Q12809)
# Experiment: primary screen, population patch clamp on CHO cells stably expressing hERG
# Chain of human ether-à-go-go-related gene (hERG) potassium channel (Q12809 whole entry, looked up): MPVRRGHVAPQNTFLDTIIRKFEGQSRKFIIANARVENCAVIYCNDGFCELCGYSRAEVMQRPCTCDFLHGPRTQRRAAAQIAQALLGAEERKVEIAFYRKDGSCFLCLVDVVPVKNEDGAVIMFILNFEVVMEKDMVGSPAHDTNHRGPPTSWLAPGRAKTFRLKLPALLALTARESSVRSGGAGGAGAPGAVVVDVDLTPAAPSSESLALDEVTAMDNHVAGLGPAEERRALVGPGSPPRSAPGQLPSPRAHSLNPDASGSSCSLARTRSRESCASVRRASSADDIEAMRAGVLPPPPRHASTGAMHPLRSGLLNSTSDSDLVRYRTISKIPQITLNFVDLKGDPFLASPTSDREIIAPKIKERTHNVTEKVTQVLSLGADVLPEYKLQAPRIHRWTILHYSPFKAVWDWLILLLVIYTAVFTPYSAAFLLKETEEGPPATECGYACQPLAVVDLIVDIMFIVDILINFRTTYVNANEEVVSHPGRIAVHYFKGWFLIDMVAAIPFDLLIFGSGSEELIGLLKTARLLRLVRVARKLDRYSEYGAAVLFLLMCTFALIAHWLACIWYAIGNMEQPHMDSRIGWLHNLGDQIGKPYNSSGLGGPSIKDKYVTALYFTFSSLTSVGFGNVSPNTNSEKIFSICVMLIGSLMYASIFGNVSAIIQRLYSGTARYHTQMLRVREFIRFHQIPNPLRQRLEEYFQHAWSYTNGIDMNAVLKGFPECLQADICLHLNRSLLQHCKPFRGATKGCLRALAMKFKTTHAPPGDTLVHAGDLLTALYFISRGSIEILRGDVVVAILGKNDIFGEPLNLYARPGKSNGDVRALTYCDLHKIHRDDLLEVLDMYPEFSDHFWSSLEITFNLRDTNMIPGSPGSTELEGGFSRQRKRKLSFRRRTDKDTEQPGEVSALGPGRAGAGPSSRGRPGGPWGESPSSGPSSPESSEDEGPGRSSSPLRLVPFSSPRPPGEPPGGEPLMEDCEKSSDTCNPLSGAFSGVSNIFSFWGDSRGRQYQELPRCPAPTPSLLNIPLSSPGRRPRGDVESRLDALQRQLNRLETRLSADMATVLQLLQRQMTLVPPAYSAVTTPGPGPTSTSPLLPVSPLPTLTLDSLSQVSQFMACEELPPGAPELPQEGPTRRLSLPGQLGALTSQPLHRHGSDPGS
row,Structure (SMILES),"hERG current change (%, negative = inhibition) at 1uM"
1,Cc1ccc2nc(SCC(=O)N3CCOCC3)[nH]c2c1,1.05%
2,Cc1csc(SCCn2c(N3CCOCC3)nc3c2c(=O)[nH]c(=O)n3C)n1,10.8%
3,Cc1ccc(S(=O)(=O)NNC(=O)C2CCN(Cc3ccccc3)CC2)cc1,-6.3%
4,O=C(NCCN1CCOCC1)C(=O)NCc1ccco1,14.6%
5,CSc1ccccc1C(=O)Nc1ccccc1C,13%
6,Cc1nnsc1C(=O)NC1CCCc2c1cnn2-c1cc(F)cc(F)c1 (centres unmarked),1.22%
7,CCCc1cc(-c2n[nH]c(=S)n2-c2cccc(C)c2)cs1,12.3%
8,COc1ccc2nc(/C=N/NC(=O)[C@H](CCSC)NC(=O)OC(C)(C)C)ccc2c1,0.0002%
9,O=C(CSc1nc2sc3c(c2c(=O)n1-c1ccccc1)CCCC3)N/N=C/c1ccccc1C(=O)O,13.6%
10,Nc1ccccc1SCC(=O)Nc1cccc2ccccc12,13.9%
11,C=CCSC1=C(C#N)C(c2ccccc2Cl)CC(=O)N1 (centres unmarked),2.54%
12,CCN(CC)c1cnn(C/C(=N\OC)c2ccc(Cl)cc2)c(=O)c1Br,3.27%
13,CCOC(=O)Cn1c(=O)oc2cc(S(=O)(=O)Nc3cc(Cl)ccc3OC)ccc21,6.88%
14,COc1ccc2cc(-c3ccccc3)c(=O)oc2c1,18.5%
15,O=C(O)c1nc2nc(Cl)c(Cl)nc2[nH]1,17.1%
16,COC1=CC(=O)C(O)=C(CCCCCCC/C=C/CCCCCCCC2=C(O)C(=O)C=C(OC)C2=O)C1=O,16.2%
17,O=C(O)c1ccccc1/C=N/NC(=S)NC1CCCCC1,6.63%
18,COc1cc(Cl)c(C)cc1NC(=O)CCNC(=O)c1ccco1,15%
19,COc1ccccc1CNC(=O)c1oc2ccccc2c1C,2.48%
20,O=C(/C=C/c1ccc(F)cc1)NCCCN1CCN(CCCNC(=O)/C=C/c2ccc(F)cc2)CC1,-72.5%
21,O=C(Nc1ccccc1NC(=O)C1CCCO1)c1ccco1 (centres unmarked),10.2%
22,C=CCn1ccc2c([N+](=O)[O-])cccc2c1=O,8.46%
23,COc1ccc(C2(C#N)CCN(C)CC2)cc1.Cl,-0.0475%

row,Structure (SMILES),"hERG current change (%, negative = inhibition) at 1uM"
1,Nc1cccn2c(-c3ccc(Cl)c(Cl)c3)cnc12,15.3%
2,COc1ccc(-c2cc(C(F)F)n3ncc(C(=O)N4CCc5ccccc54)c3n2)cc1,4.85%
3,Cc1cc(C)cc(-n2ncc3c2CCCC3NC(=O)CCN2Cc3ccccc3C2=O)c1 (centres unmarked),-10.7%
4,COC(=O)CC1=C(C(=O)OC)C(c2cccc(OCC(N)=O)c2)C(C#N)=C(N)O1 (centres unmarked),9.72%
5,O=C(NC(=S)Nc1cccc(Cl)c1N1CCOCC1)c1cccs1,16.2%
6,COc1ccc(S(=O)(=O)N2CCCC2)cc1C(=O)N1CCCCC1,11.6%
7,O=C(CCl)NNC(=O)c1c(O)c2ccccc2[nH]c1=O,9.94%
8,CN1CCCN(S(=O)(=O)c2ccc3c(c2)OCCO3)CC1,12.7%
9,COc1ccccc1S(=O)(=O)NCc1ccc(C(=O)NC(C)c2ccccn2)cc1 (centres unmarked),10.9%
10,Cc1cc(SCC(=O)N/N=C/c2ccccc2C(=O)O)c(C)cc1Br,8.44%
11,CC(C)C(C)NC(=O)Cn1cnc2c(oc3ccccc32)c1=O (centres unmarked),10.8%
12,COc1ccc(Br)cc1C(=O)NC(=S)Nc1ccc(CN2CCOCC2)cc1,-0.395%
13,CCOc1ccc(-c2n[nH]c(C)c2Oc2ccc(OC)cc2)c(O)c1,-6.34%
14,O=[N+]([O-])c1ccccc1N/N=C1\CCc2ccccc21,8.96%
15,C(#Cc1ccccc1)CN1CCCCC1.Cl,2.27%
16,C=CCOC(=O)C1=C(C)NC(=O)NC1c1cn(-c2ccccc2)nc1-c1cccs1 (centres unmarked),10.8%
17,COc1ccc(N2CCN(C(=O)COC(=O)c3ccc(C)o3)CC2)cc1,12.5%
18,COc1cc(/C=C/C(=O)N2CCCN(C(=O)/C=C/c3cc(OC)c(OC)c(OC)c3)CC2)cc(OC)c1OC,9.62%
19,O=C(NCc1cccnc1)C1c2ccccc2C(=O)N1Cc1ccco1 (centres unmarked),-0.149%
20,CC(=O)Nc1cccc(/C(C)=N/N2C(C)CCCC2C)c1 (centres unmarked),16.8%
21,O=C(CSc1nc(Nc2ccccc2)nc(N2CCOCC2)n1)Nc1ccc([N+](=O)[O-])cc1,7.87%
22,CCOC(=O)Cn1c(=O)c2c(nc3n2CCS3)n(C)c1=O,9.3%
23,Cc1ccc2c(c1)C1CN(C)CCC1N2S(=O)(=O)c1ccccc1 (centres unmarked),-3.52%

row,Structure (SMILES),"hERG current change (%, negative = inhibition) at 1uM"
1,COc1ccc(S(=O)(=O)N2CCCC2)cc1OC,13%
2,Cc1cc(C)cc(NC(=O)c2c(C)nc3ccccn23)c1,16.4%
3,O=c1oc2ccccc2c(NCCO)c1[N+](=O)[O-],10.3%
4,CCN(CC)CCOC(=O)c1ccc(NC(=O)COc2cc(=O)n(CC)c3ccccc23)cc1,13.9%
5,CCn1c(SCC(=O)c2ccccc2)nnc1-c1cccs1,0.612%
6,O=C(CSc1nnc(-c2ccccc2)c(-c2ccccc2)n1)N1CCc2ccccc21,13.6%
7,COc1ccccc1-n1c(CNC(=O)c2ccco2)n[nH]c1=S,16.7%
8,CCCNC(=O)COC(=O)C1CCN(S(=O)(=O)c2ccc3c(c2)OCCO3)CC1,10.7%
9,CN(CCOc1ccc(Cl)cc1)C(=O)c1cc(S(=O)(=O)N2CCOCC2)ccc1N1CCCC1,-21.8%
10,Cc1ccccc1C(=O)NCC(C)NC(=O)c1ccccc1C (centres unmarked),11.5%
11,O=C(Cc1ccc(Cl)cc1)NNC1CC(=O)N(c2ccc3ccccc3c2)C1=O (centres unmarked),6.62%
12,Cc1cc(Br)ccc1NC(=O)CNC(=O)c1cnn(C)c1,19%
13,C/C(=N/NC(=O)c1ccc(C)s1)c1cccc(NC(=O)c2ccoc2C)c1,0.398%
14,[O-][n+]1c2ccccc2cc2ccccc21,13.2%
15,CC(C)(C)OC(=O)c1c(N)n(CCCN2CCCC2=O)c2nc3ccccc3nc12,5.21%
16,CC(=O)Nc1ccc(S(=O)(=O)Nc2ccc3c(c2)OCCO3)cc1Cl,15.2%
17,O=[N+]([O-])c1ccccc1/C=N/NC1=NCCN1,11.5%
18,COc1cc(Cl)c(C)cc1NC(=O)CSc1nnc(-c2cccnc2)n1Cc1ccco1,-10%
19,Cc1ccc(S(=O)(=O)N2CCCCC2)cc1,15%
20,COC(c1ccccc1)(c1ccccc1)C(Oc1nccc(C)n1)C(=O)O (centres unmarked),22.6%
21,CCn1cc(/C=C(\NC(=O)c2ccccc2OC)C(=O)N2CCN(C)CC2)c2ccccc21,7.03%
22,Cc1cc(NC(=O)COc2ccccc2)n(-c2ccccc2)n1,7.62%
23,CC(=O)OC(C)C(=O)NS(=O)(=O)c1ccc(C)cc1 (centres unmarked),4.92%

row,Structure (SMILES),"hERG current change (%, negative = inhibition) at 1uM"
1,Cc1cccc(NS(=O)(=O)c2cccc(C(=O)NCC(c3ccco3)N3CCCCC3)c2)c1 (centres unmarked),9.05%
2,CCCCC(=O)Nc1nc(C)c(-c2csc(Nc3ccc(Cl)cc3)n2)s1,-5.68%
3,CC1CCCN(C(=O)CN2CCC(c3nc4ccc(Cl)cc4[nH]3)CC2)C1 (centres unmarked),-35.9%
4,CC1Cc2nc(SCC(=O)Nc3ccccc3F)n(C)c(=O)c2S1 (centres unmarked),1.68%
5,Cc1ccc(NC(=O)c2cc(S(=O)(=O)c3ccccc3)ccc2Cl)cc1,9.7%
6,CCn1nc(NC(=O)CC(C)C)c2cc3cccc(C)c3nc21,7.67%
7,Cc1c(C(=O)N2CCCCC2)c(S(=O)(=O)N2c3ccccc3CC2C)c(C)n1C (centres unmarked),10.4%
8,O=C(CSc1nnc(Cn2nnc3ccccc32)o1)Nc1ccc(Cl)cc1,9.52%
9,COc1cc(NC(=O)CN2c3cccc4cccc(c34)S2(=O)=O)cc(OC)c1OC,5.62%
10,Cc1ccc(Cn2cc(SCC(=O)Nc3nccs3)c3ccccc32)cc1,5.73%
11,Nc1cc(=O)[nH]c(SCC(=O)Nc2ccc(S(=O)(=O)N3CCCCC3)cc2)n1,14.7%
12,COc1ccc(/C(C)=N/N=C2/NC(=O)CC(C(=O)O)S2)cc1F (centres unmarked),12.3%
13,Cn1c(=O)c2c(-c3ccc(C(C)(C)C)cc3)n(CC3CCCO3)cc2n(C)c1=O (centres unmarked),6.51%
14,N#CC1=C(S)N(c2ccccc2)C2(CCCCC2)NC1=O,-1.63%
15,CCCNC(=O)CSc1ccc(S(=O)(=O)N2CCCC2)cn1,10.2%
16,Cc1ccccc1CN(c1ccc(C(=O)N/N=C/c2ccc(OCC(N)=O)cc2)cc1)S(C)(=O)=O,3.63%
17,O=C(NC1CCSC1=O)c1ccc(Oc2ccc(F)cc2)nc1 (centres unmarked),18.1%
18,C/C(CCC(C)C)=N\NC(=S)NCc1ccccc1,5.51%
19,COc1ccc(NS(=O)(=O)c2ccc(N3CCOCC3)c(NC(=O)C(C)C)c2)cc1,-1.29%
20,Cc1cccc(N2C(S)=C(C#N)C(=O)NC2c2ccco2)c1 (centres unmarked),3.99%
